# From PubChem BioAssay AID485294 (National Center for Advancing Translational Sciences (NCATS), 2010)
# Hit rate of the full screen: of about 370,000 compounds, about 150 (0.041%) were called active. The inconclusive results got no clear call from the source; some entries with a clear call stand among them for comparison. Calls follow the shape of the dose curve; as a rule, active = well fitted inhibition curve with a large enough effect; inconclusive = small, poorly fitted or top-dose-only effect; inactive = flat fitted curve, though single readings scatter. Potencies of inconclusive entries are left out as doubtful fits.
# Target: Beta-lactamase (Escherichia coli (strain K12)) (UniProt P00811)
# Experiment: qHTS Inhibitors of AmpC Beta-Lactamase (assay with detergent); also: nearly all actives have a fitted effect of over 25% in size;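 as to activity change, negative = inhibition: 0% = no-compound wells and -100% = no-enzyme wells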
# Conditions: AmpC hydrolysis of nitrocefin, absorbance 480 nm, 0.01% Triton; activity change, negative = inhibition: at 114 µM (top of the series)
# Summary of the method: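 AmpC (5.3 nM in the dispensed reagent) in 20 mM phosphate pH 7.0 with 0.01% (detergent screen) or 0.0001% Triton X-100 was preincubated with compounds for 15 min at room temperature. Nitrocefin was then added from an 800 uM solution, and hydrolysis was followed at 480 nm.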
# Potency is read from the fitted curve at half-maximal effect; tags tell the direction and shape of the fitted curve.
# UniProt P00811, sequence (P00811 whole entry, looked up): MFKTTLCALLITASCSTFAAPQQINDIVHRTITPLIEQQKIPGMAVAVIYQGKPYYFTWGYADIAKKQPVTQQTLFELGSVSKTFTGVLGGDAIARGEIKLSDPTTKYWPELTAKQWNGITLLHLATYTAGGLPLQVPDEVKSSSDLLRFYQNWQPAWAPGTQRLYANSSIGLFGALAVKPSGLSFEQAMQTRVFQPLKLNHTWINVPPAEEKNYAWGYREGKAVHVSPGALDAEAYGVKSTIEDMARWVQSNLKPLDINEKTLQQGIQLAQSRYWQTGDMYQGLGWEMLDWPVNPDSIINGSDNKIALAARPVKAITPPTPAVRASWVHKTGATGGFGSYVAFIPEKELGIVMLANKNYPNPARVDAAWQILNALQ
Compound,"activity change, negative = inhibition",Potency
Cc1cccc(S(=O)(=O)c2c(N)n(/N=C/c3ccccc3)c3nc4ccccc4nc23)c1,inactive: -3.64%,–
Nn1cnc2c(c1=O)C1(CCCCC1)Cc1ccccc1-2,inactive: -2.76%,–
CN(C)CCCn1c(SCc2ccc(Cl)cc2)nnc1-c1ccncc1,–,"inconclusive [inhibitor, full curve, poor fit]"
CCCC1=NN(c2ccc([N+](=O)[O-])cc2)C(=O)/C1=C\N(C)C,–,"inconclusive [inhibitor, partial curve, poor fit]"
Cc1cc(NC(=O)CSCC(=O)Nc2ccccc2OC(F)F)no1,–,"inconclusive [inhibitor, full curve, poor fit]"
COc1ccc(NC(=S)N(CCc2ccc(OC)c(OC)c2)Cc2ccccn2)cc1,inactive: 2.61%,–
Cc1ccc(C(O)(C(=O)NNc2ccc3ccccc3n2)c2ccc(C)cc2)cc1,–,"inconclusive [inhibitor, partial curve, poor fit]"
C=CCn1c(C23CC4CC(CC(C4)C2)C3)n[nH]c1=S,–,"inconclusive [inhibitor, full curve]"
Cc1ccccc1CC1CCN(CCCNC(=O)Nc2ccccc2)CC1,–,"inconclusive [inhibitor, full curve, poor fit]"
O=C(CCSc1nnc(-c2ccco2)o1)Nc1ccccc1,–,"inconclusive [inhibitor, full curve, poor fit]"
Cc1cc(NC(=O)c2ccc(Cl)cc2)c(C)cc1O,inactive: -3.55%,–
O=c1c2ccccc2nnn1Cc1ccccn1,–,"inconclusive [inhibitor, partial curve, poor fit]"
CC(=O)/C(N=Nc1ccc2c(c1)OCO2)=C(\C)O,inactive: -0.215%,–
CC1CCc2nn(CC(=O)N3CCN(C(=O)c4ccco4)CC3)cc2C1 (centres undefined),–,"inconclusive [inhibitor, full curve, poor fit]"
COc1ccc(C2NC(=O)NC(C)=C2C(=O)OC2CCC(C)CC2)cc1 (centres undefined),inactive: 0.981%,–
Cc1cc(OC(C)C(=O)NCCCN2CCOCC2)ccc1Cl (centres undefined),–,"inconclusive [inhibitor, single point]"
COc1c(OC)c2[nH]c(=O)cc3c4ccccc4n(c1=O)c23,–,"inconclusive [inhibitor, full curve, poor fit]"
Cc1cccc(NC(=O)c2c(F)c(F)c(F)c(F)c2F)c1,inactive: 4.2%,–
O=C(CN1C(=O)CC(c2ccccc2)=Nc2ccccc21)NCc1ccccc1,–,"inconclusive [inhibitor, full curve, poor fit]"
CC(=O)Nc1sc2c(c1C(c1ccc(Cl)cc1)N1CCOCC1)CCCC2 (centres undefined),–,"inconclusive [inhibitor, full curve, poor fit]"
COc1cc(C(=O)Nc2cc3c4c(c2)CC(=O)N4CCC3)cc(OC)c1OC,–,"inconclusive [inhibitor, partial curve, poor fit]"
Cc1oc2c(C)c3oc(=O)c(CCC(=O)NCCN4CCOCC4)c(C)c3cc2c1C,–,"inconclusive [inhibitor, full curve, poor fit]"
O=C(O)CSc1nnc(-c2ccc(Cl)cc2)n1-c1ccccc1,inactive: 0.253%,–

Compound,"activity change, negative = inhibition",Potency
COc1cccc(CNC(=O)C2CCN(S(=O)(=O)c3cn(C)cn3)CC2)c1,inactive: 0.116%,–
COc1ccc(Br)c2oc(S)cc(=O)c12,inactive: -10.1%,–
O=C(Cn1cc([N+](=O)[O-])cn1)N1CCc2ccccc2C1,–,"inconclusive [inhibitor, full curve, poor fit]"
Clc1ccc2nncn2n1,–,"inconclusive [inhibitor, partial curve]"
O=C(C1=C[C@H](c2ccc3c(c2)OCO3)C[C@H](OCCCCO)O1)N1CCN(Cc2ccccc2)CC1,inactive: -8.33%,–
C(=N\N1CCN(c2ccccn2)CC1)/c1ccco1,inactive: -6.57%,–
COc1ccccc1/C=N/N1C(=O)c2cccc3cccc(c23)C1=O,inactive: -11.5%,–
Cc1c(CCC(C)C)c(-n2ccnc2C)n2c(nc3ccccc32)c1C#N,–,"inconclusive [inhibitor, full curve, poor fit]"
COc1ccc(/C=N/NC(=O)c2ccccc2O)cc1Cn1nnc2ccccc21,inactive: -1.57%,–
COc1ccc(-c2oc3ccc(-c4cc(OC)c(OC)c(OC)c4)cc3c2C(=O)c2ccc(OC)nc2)cc1,–,"inconclusive [inhibitor, full curve, poor fit]"
Cc1cc(C)c(C#N)c(SCc2[nH]nc3c2C(c2ccc(F)cc2)C(C#N)=C(N)O3)n1 (centres undefined),–,"inconclusive [inhibitor, partial curve, poor fit]"
CC(C)[C@H](NC(=O)OCc1ccccc1)C(=O)OCC(=O)N1CCN(c2ccccc2)CC1,–,"inconclusive [inhibitor, full curve]"
COCCNC(=O)C(=O)NCC1OCCCN1S(=O)(=O)c1cccs1 (centres undefined),–,"inconclusive [inhibitor, full curve]"
CCCNC(=O)c1cccc(S(=O)(=O)N2CC3(C)CC2CC(C)(C)C3)c1 (centres undefined),–,"inconclusive [inhibitor, full curve]"
O=C(Cn1nnc(-c2ccccc2)n1)OCc1csc(-c2ccccc2)n1,–,"inconclusive [inhibitor, partial curve, poor fit]"
CC(C)CCCN1CCN=C1N(C)C,–,"inconclusive [inhibitor, partial curve, poor fit]"
Cc1cc(C)n2c(-c3ccccc3Cl)nnc2n1,–,"inconclusive [inhibitor, partial curve, poor fit]"
Cc1nc2c(c(C)nn2-c2ccccc2)c(C)c1Cl,–,"inconclusive [inhibitor, full curve, poor fit]"
CCC1(c2ccc(F)cc2)NC(=O)N(CC(=O)N2c3ccccc3NC(=O)C2(C)C)C1=O (centres undefined),–,"inconclusive [inhibitor, single point]"
Cc1ccc2cc(CN(Cc3ccco3)C(=O)NC3CCCCC3)c(=O)[nH]c2c1C,inactive: -8.05%,–
COC(=O)CN1C(=O)COc2ccc(Cl)cc21,–,"inconclusive [inhibitor, full curve, poor fit]"
CC(C)(C)CC(C)(C)NCC(O)COCCOc1ccc(Br)cc1 (centres undefined),–,"inconclusive [inhibitor, partial curve]"
COc1ccc(CNCc2cccc(OC)c2OC)cc1Br,–,"inconclusive [inhibitor, full curve, poor fit]"

Compound,"activity change, negative = inhibition",Potency
Cc1cc(C)nc(SCC(=O)Nc2ncc3c(n2)CC(C)(C)CC3=O)n1,–,"inconclusive [inhibitor, partial curve, poor fit]"
COc1ccc(CCNC(=O)CCCn2c(=O)c3ccccc3n(Cc3c(C)cc(C)cc3C)c2=O)cc1OC,inactive: -2.37%,–
CCC(=O)N1c2ccc(S(=O)(=O)N3CCC(C)CC3)cc2CC1C (centres undefined),inactive: -0.809%,–
CCOc1ccccc1N(CC(=O)Nc1ccc(C)cc1)S(C)(=O)=O,–,"inconclusive [inhibitor, full curve]"
CCCC(=O)Nc1nc2ccc(S(N)(=O)=O)cc2s1,–,"inconclusive [inhibitor, full curve]"
COc1ccc2o/c(=N/NC(=O)c3cccs3)c(C(N)=O)cc2c1,inactive: 1.97%,–
Cc1cc2ncn(C(=O)c3c(-c4ccccc4Cl)noc3C)c2cc1C,–,"inconclusive [inhibitor, single point]"
COc1ccc(OCC(=O)Nc2ccc(S(=O)(=O)N3CCOCC3)cc2)cc1,–,"inconclusive [inhibitor, full curve]"
CCOc1cc(/C=N/NC(=O)c2cccnc2)cc(Br)c1OCC(N)=O,–,"inconclusive [inhibitor, full curve, poor fit]"
O=C(CCSc1nc(-c2ccco2)cc(C(F)(F)F)n1)N1CCN(c2ccccn2)CC1,inactive: -9.88%,–
Cc1ccc2c(c1)cc1c(=O)n(CC(=O)NC3CCCCC3)nc(C)n12,inactive: 26.4%,–
Cc1nc2ccc(S(=O)(=O)NCC(=O)N3CCN(c4ccccc4)CC3)cc2s1,–,"inconclusive [inhibitor, full curve, poor fit]"
S=c1nc[nH]c2nc[nH]c12,–,"inconclusive [inhibitor, partial curve]"
Cn1c(NCc2cc(Br)ccc2O)nc2ccccc21,–,"inconclusive [inhibitor, full curve, poor fit]"
Nc1nnc(SCC(=O)Nc2ccc(F)c(Cl)c2)n1-c1ccccc1,–,"inconclusive [inhibitor, single point]"
O=C1OCCC1Sc1nnc(-c2ccccc2)o1 (centres undefined),–,"inconclusive [inhibitor, partial curve]"
O=C(COc1ccccc1)NN1C(=O)CSC1=S,–,"inconclusive [inhibitor, full curve]"
Cc1ccc(S(=O)(=O)c2nc(-c3cccc(C)c3)oc2N2CCN(c3ccccc3)CC2)cc1,inactive: -1.32%,–
O=C(Nc1ccc2c(c1)OCCO2)c1ccc(S(=O)(=O)N2CCCCC2)cc1,inactive: -13%,–
O=C(NCCS(=O)(=O)NCc1ccccc1)c1ccccc1,–,"inconclusive [inhibitor, partial curve]"
Cc1ccc(C(=O)COC(=O)c2ccccc2NC(=O)c2ccccc2)cc1[N+](=O)[O-],–,"inconclusive [inhibitor, partial curve]"
Cc1cc(C)nc(NS(=O)(=O)c2ccc(-n3cccc3)cc2)n1,–,"inconclusive [inhibitor, full curve, poor fit]"
COc1cc2cc(C#N)c(SCC(=O)N3CCOCC3)nc2cc1OC,–,"inconclusive [inhibitor, full curve, poor fit]"
